The target in assay [1] is T1, AtRFC2 (Arabidopsis thaliana) (UniProt Q9CAM7).
T1 sequence: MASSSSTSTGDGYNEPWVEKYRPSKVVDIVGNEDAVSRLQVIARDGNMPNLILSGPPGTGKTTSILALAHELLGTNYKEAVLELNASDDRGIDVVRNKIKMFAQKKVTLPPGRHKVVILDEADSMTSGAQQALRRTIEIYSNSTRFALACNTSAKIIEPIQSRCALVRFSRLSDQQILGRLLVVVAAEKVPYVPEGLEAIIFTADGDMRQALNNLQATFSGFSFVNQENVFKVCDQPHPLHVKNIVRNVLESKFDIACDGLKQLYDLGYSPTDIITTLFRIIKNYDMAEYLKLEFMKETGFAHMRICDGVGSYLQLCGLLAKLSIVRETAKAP
The assay is described as follows: split reporter; BiFC; YFP^N (aa 1-155) and YFP^C (aa 156-239) fusions (pCAMBIA-SPYNE, pCAMBIA-SPYCE) co-expressed in tobacco (Nicotiana benthamiana) leaf epidermal cells through Agrobacterium GV3101; confocal microscopy of YFP; only the two named fusions.

Sequences of proteins named here, by UniProt entry; tags and fusion partners are left off. A change or cut given only in a name is not applied to a line headed by its entry.
UniProt Q9FXM3: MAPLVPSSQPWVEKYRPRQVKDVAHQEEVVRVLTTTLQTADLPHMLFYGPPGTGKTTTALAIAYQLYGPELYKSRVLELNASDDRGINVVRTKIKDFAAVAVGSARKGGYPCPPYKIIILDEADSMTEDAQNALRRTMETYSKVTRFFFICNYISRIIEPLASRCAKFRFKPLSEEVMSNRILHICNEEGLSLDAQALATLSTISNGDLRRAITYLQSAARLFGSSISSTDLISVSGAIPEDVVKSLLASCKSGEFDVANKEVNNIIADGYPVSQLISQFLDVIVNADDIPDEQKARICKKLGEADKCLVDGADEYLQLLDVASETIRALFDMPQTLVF
UniProt Q93ZX1: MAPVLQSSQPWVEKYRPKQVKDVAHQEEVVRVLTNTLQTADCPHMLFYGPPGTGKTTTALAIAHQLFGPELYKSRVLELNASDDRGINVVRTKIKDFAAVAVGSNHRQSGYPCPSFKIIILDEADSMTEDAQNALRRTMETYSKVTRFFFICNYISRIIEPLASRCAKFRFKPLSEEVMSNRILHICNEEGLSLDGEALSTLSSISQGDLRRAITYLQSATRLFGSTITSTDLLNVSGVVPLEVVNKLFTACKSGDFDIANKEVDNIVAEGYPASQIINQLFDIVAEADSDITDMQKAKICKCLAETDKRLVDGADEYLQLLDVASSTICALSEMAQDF

Assay [2] concerns the target T2, AtRFC5 (Arabidopsis thaliana) (UniProt Q8VXX4).
T2 sequence: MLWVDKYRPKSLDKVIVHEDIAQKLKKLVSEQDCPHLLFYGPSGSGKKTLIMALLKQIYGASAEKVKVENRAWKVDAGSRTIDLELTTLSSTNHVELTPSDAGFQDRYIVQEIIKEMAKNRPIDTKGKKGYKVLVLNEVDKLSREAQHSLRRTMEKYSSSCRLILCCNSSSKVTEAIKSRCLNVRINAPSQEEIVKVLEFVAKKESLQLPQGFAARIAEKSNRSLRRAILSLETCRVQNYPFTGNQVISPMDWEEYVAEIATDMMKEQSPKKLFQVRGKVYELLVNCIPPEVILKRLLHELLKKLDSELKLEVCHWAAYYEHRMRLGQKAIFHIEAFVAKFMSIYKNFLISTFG
Described as above.

In assay [3] the target is T3, AtRFC1 (Arabidopsis thaliana) (UniProt Q9C587).
T3 sequence: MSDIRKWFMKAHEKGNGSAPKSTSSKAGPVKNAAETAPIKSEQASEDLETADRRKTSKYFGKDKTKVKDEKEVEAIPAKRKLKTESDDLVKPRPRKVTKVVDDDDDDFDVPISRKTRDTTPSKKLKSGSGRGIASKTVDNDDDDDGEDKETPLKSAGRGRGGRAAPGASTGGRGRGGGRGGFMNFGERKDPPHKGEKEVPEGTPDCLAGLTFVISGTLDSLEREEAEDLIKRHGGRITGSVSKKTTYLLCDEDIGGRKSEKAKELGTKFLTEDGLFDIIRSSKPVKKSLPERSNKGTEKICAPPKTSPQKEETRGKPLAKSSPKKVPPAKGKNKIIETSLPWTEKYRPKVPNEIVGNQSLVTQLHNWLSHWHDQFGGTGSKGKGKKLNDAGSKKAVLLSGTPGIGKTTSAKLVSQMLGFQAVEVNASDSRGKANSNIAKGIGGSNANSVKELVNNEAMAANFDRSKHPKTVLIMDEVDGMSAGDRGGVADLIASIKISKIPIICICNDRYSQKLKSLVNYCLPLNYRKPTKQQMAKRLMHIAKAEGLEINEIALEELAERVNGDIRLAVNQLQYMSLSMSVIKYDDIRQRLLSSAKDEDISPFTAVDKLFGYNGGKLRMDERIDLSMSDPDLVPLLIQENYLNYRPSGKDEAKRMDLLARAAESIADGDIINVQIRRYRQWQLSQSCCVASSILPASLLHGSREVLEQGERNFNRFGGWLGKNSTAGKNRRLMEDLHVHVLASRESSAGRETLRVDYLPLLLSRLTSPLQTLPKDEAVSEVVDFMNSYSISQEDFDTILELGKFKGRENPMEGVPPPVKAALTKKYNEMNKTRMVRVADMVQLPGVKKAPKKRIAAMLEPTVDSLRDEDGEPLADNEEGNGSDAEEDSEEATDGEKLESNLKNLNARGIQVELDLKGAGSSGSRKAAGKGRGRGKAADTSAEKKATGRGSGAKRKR
Nature of the assay: split reporter; BiFC in tobacco leaf epidermal cells with truncated AtRFC proteins, pairs that include AtRFC1 or a truncated AtRFC1; whether the other small subunits were co-expressed is not said.

Assay [4] addresses T4, OsRFC4 (rice (Oryza sativa)) (UniProt Q7XRX1).
T4 sequence: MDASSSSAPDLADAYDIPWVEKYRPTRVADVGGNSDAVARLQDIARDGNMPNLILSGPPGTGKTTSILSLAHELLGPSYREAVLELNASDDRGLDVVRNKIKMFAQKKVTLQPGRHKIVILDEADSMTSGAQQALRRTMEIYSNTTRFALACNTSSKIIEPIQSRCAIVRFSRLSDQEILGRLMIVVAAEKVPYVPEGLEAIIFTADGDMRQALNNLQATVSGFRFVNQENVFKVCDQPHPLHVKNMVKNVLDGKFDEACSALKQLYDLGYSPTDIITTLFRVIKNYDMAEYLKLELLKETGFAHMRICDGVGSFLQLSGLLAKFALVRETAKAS
Nature of the assay: two-hybrid; yeast two-hybrid; full-length ORFs in pGADT7 (AD) and pGBKT7 (BD); co-transformed strains spotted on SD-L-T and SD-L-T-H-A plates; empty AD or BD plasmids as negative controls.

For assay [5], the target named is T5, OsRFC5 (rice (Oryza sativa)) (UniProt Q852K3).
T5 sequence: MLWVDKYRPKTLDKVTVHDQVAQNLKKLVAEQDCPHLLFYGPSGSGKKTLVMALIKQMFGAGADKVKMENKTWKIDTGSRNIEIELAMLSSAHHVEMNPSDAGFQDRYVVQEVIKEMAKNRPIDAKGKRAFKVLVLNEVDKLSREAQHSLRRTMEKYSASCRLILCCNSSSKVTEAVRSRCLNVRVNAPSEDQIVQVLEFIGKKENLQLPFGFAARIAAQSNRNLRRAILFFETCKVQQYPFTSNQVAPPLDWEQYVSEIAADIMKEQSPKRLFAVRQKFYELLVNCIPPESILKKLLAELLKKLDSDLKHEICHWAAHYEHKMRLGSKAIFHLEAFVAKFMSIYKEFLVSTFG
The assay is described as above.

In assay [6] the target is T6, OsRFC3 (rice (Oryza sativa)) (UniProt Q6YZ54).
T6 sequence: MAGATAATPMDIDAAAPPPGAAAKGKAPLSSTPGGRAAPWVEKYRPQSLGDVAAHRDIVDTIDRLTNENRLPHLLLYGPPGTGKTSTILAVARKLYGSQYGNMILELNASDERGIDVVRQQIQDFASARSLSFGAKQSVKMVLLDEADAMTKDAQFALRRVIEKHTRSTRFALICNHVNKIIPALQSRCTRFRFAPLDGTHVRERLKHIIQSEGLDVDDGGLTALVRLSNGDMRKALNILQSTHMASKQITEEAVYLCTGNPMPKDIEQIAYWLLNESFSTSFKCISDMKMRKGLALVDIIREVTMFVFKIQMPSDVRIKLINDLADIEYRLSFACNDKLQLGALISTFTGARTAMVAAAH
Described as above.

The target in assay [7] is OsRFC2 (rice (Oryza sativa)) (UniProt Q9FXM3). The assay is described as above.
Assay [8] concerns the target T1, AtRFC2 (Arabidopsis thaliana). Nature of the assay: split reporter; BiFC; YFP^N (aa 1-155) and YFP^C (aa 156-239) fusions (pCAMBIA-SPYNE, pCAMBIA-SPYCE) co-expressed in tobacco (Nicotiana benthamiana) leaf epidermal cells through Agrobacterium GV3101; confocal microscopy of YFP; only the two named fusions. This is another data set of the same source.
For assay [9], the target named is AtRFC4 (Arabidopsis thaliana) (UniProt Q93ZX1). Described as above.
For assay [10], the target named is T2, AtRFC5 (Arabidopsis thaliana). Described as above. This is another data set of the same source.
The target in assay [11] is T1, AtRFC2 (Arabidopsis thaliana). The assay is described as follows: two-hybrid; yeast two-hybrid; full-length ORFs in pGADT7 (AD) and pGBKT7 (BD); co-transformed strains spotted on SD-L-T and SD-L-T-H-A plates; empty AD or BD plasmids as negative controls.
In assay [12] the target is AtRFC4 (Arabidopsis thaliana) (UniProt Q93ZX1). The description is as above.

Where two headings read alike, the source gives them in different places. No constants are given. Whether binding was seen depends on the method and setting. For some of these results: In cells and extracts the contact can be indirect. Some binding calls cover weakened binding; strength is not graded here.

Consider “RFC4 Δ300–339 (from UniProt Q93ZX1 1-299) (domain or fragment)”, for which the binding result in assay [1], in assay [2] and in assay [3] was “no binding” each time.

With “AtRFC4 Δ320–339 (from UniProt Q93ZX1 1-319) (domain or fragment)”, the figures for the binding result in assay [1], in [2] and in assay [3] were “binds”, “binds” and “no binding”, respectively.

B1: OsRFC1 (protein, UniProt Q2R2B4 1-1021)
chain: MSSDIRKWFMKAQDKNGGAAKPAGTTALAKKPVLSIPEKPSAAPSMAACDQDCSARRKTSKYFASKTEKEEDTSAGKGTGRGLPKRKLQKVSDELEDDMKPLPAKEVHKEEEDDDDDDFVAPSKRKTPVKPPPSKKLKGASTAEAHGKTGLDDDNEDKMDEDAKTPSKASGSGRGRGRGRGRGGRGAGAAHGKTIGLDDDGEEDKMDEDAKTPSKAAGRGRGGASGGRGRGGGGRGFMNFGERKDPPHKGEKEVPEGAPDCLTGLTFVISGTLDSLEREEATDLIKRYGGRVTGSISKKTNYLLADEDVGGVKSNKAKELGVPFLTEDGLFDMIRKSKPAKATVAKHQSDKNSEKQQKSPMKSSPVKVERRDGNQITTGKNISPKSNKGSASIDNQKVNIVDRGSLQWTEKYRPKVPNDIVGNQSMVKQLHDWLRSWEDQFLHSGQKGKGKKQADSGAKKAVLLSGPPGIGKTTTAKVVSQMLGLQAIEVNASDSRGKADSKIEKGVGGSTSNSIKELISNATLNYSNNRLKRPKAVLVMDEVDGMSAGDRGGVADLIASIKMSKIPIICICNDRYSQKLKSLVNYCLLLNFRKPTKQQMGKRLMEIAKKEGLQAQENAMEELAERVHGDIRMALNHLQYMSLSQSVVKYDDIRQRLNSSTKDEDISPFTAVDKLFGFNGGRLRMDERIDLSMSDPDLVPLIIQENYINYRPITVGKDDSGVKRMNFLARAAESIADADIVNVQIRRYRQWQLSQAACLSSSIVPAALMHGNREILEAGERNFNRFGGWLGKYSTTNKNIRLLEDAHSHILASQQANLDRESLRLDYLTLLLRQLTDPLKTMPKDEAVQKVVEFMDTYSLSQEDFDTIVELSKFKGHPNPMDGIQPAVKSALTKAYKQGSSSRVVRAADLVNIPGMKKPLKKRVAAILEPVGESLPEENGVASSEGDEEDSSDAENNDELVPGDTKPKLDLQSDKKKGIQVQLDLKSNGNGLNSKKMPAGRSKASGSAGKAAGGSGGKRKR
For B1, the binding entry in [4], in [5], in assay [6], in [7], in assay [8] and in [9] was “binds” each time. In [10], the binding entry is “binds”.

B2: AtRFC5 (protein, UniProt Q8VXX4 1-354)
chain: T2 sequence
For the molecule B2, the binding entry in assay [11] is on record as “no binding”; in [12], “binds”; in assay [9] it was “binds”.

(Values after article PMC6018503.)
